Results on 12 compounds are retold here after patent US6544989B2, “Benzazoles: benzoxazole, benzthiazole and benzimidazole derivatives” (Syngenta Limited, priority 1998, dated 2003).

Some test systems named below: Heliothis virescens; Musca domestica; Tetranychus urticae.
What all share (details): 500 ppm by weight; mortality assessed usually between three and five days after treatment
For the next data set, the system named is Myzus persicae. The data set can be described thus: Pesticidal test, Myzus persicae mortality.
The subject of a further data set is Spodoptera exigua. Nature of the data set: Pesticidal test, Spodoptera exigua mortality.

With `Cc1nsc(NC(=S)Cc2ccc3oc(CC(C)(C)C)nc3c2)c1Cl` [15(V3)], in the data set with Heliothis virescens, the “HELIVI = Heliothis virescens, grading of mortality (score)” value (“HELIVI = Heliothis virescens, grading” below) is 0 (0 indicates less than 40% mortality). Besides, in the data set on Musca domestica, the “MUSCDO AK = Musca domestica (kill), grading of mortality (score)” value (“MUSCDO AK = Musca domestica (kill)” for short) was 0 (0 indicates less than 40% mortality). In addition, the “TETRUR = Tetranychus urticae, grading of mortality (score)” value (“TETRUR = Tetranychus urticae, grading” below) in the data set with Tetranychus urticae is 9 (9 indicates 80-100% mortality). The “MYZUPE = Myzus persicae, grading of mortality (score)” value (“MYZUPE = Myzus persicae, grading” for short) with Myzus persicae is given as 5 (5 indicates 40-79% mortality). Also, the “LAPHEG = Spodoptera exigua, grading of mortality (score)” value (“LAPHEG = Spodoptera exigua, grading” for short) in the data set on Spodoptera exigua is listed as 0 (0 indicates less than 40% mortality).
Consider `Cc1nsc(NC(=O)Cc2ccc3oc(C4CCCC4)nc3c2)c1Cl` [28(A3)], for which, in the data set on Heliothis virescens, the “HELIVI = Heliothis virescens, grading” value is 9 (9 indicates 80-100% mortality). For the same compound, the “MUSCDO AK = Musca domestica (kill)” value with Musca domestica is 9 (9 indicates 80-100% mortality). The “TETRUR = Tetranychus urticae, grading” value with Tetranychus urticae was 9 (9 indicates 80-100% mortality). In the data set on Myzus persicae, the “MYZUPE = Myzus persicae, grading” value is 9 (9 indicates 80-100% mortality). Further, the “LAPHEG = Spodoptera exigua, grading” value with Spodoptera exigua is on record as 5 (5 indicates 40-79% mortality).
`Cc1nsc(NC(=O)Cc2ccc3oc(CC(C)(C)C)nc3c2)c1Cl` [Compound 15(A3)]: the “HELIVI = Heliothis virescens, grading” value in the data set on Heliothis virescens is 9 (9 indicates 80-100% mortality). Besides, the “MUSCDO AK = Musca domestica (kill)” value in the data set on Musca domestica was 0 (0 indicates less than 40% mortality). Besides, the “TETRUR = Tetranychus urticae, grading” value in the data set with Tetranychus urticae is on record as 9 (9 indicates 80-100% mortality). Also, the “MYZUPE = Myzus persicae, grading” value in the data set on Myzus persicae is 9 (9 indicates 80-100% mortality). Also, the “LAPHEG = Spodoptera exigua, grading” value in the data set on Spodoptera exigua is 9 (9 indicates 80-100% mortality).
Consider `Cc1nsc(NC(=O)Cc2ccc3oc(O)nc3c2)c1Cl` [351(A3)], for which, in the data set with Heliothis virescens, the “HELIVI = Heliothis virescens, grading” value is reported as 0 (0 indicates less than 40% mortality). Besides, the “MUSCDO AK = Musca domestica (kill)” value in the data set with Musca domestica was 0 (0 indicates less than 40% mortality). In addition, the “TETRUR = Tetranychus urticae, grading” value in the data set on Tetranychus urticae is 0 (0 indicates less than 40% mortality). In the data set on Myzus persicae, the “MYZUPE = Myzus persicae, grading” value is 0 (0 indicates less than 40% mortality). In the data set on Spodoptera exigua, the “LAPHEG = Spodoptera exigua, grading” value is reported as 0 (0 indicates less than 40% mortality).
Consider `C#CCN(C(=O)Cc1ccc2oc(C)nc2c1)c1snc(C)c1Cl` [2(F3)], for which, in the data set on Heliothis virescens, the “HELIVI = Heliothis virescens, grading” value is given as 0 (0 indicates less than 40% mortality). The “MUSCDO AK = Musca domestica (kill)” value in the data set on Musca domestica was 0 (0 indicates less than 40% mortality). The “TETRUR = Tetranychus urticae, grading” value in the data set on Tetranychus urticae is on record as 0 (0 indicates less than 40% mortality). Further, in the data set with Myzus persicae, the “MYZUPE = Myzus persicae, grading” value was 9 (9 indicates 80-100% mortality). Also, the “LAPHEG = Spodoptera exigua, grading” value in the data set with Spodoptera exigua is listed as 0 (0 indicates less than 40% mortality).
On to `C#CCN(C(=O)Cc1ccc2oc(CC(C)(C)C)nc2c1)c1snc(C)c1Cl` [15(F3)], for which the “HELIVI = Heliothis virescens, grading” value in the data set on Heliothis virescens is 9 (9 indicates 80-100% mortality). Moreover, the “MUSCDO AK = Musca domestica (kill)” value with Musca domestica is recorded as 0 (0 indicates less than 40% mortality). Moreover, in the data set with Tetranychus urticae, the “TETRUR = Tetranychus urticae, grading” value is on record as 9 (9 indicates 80-100% mortality). Moreover, in the data set with Myzus persicae, the “MYZUPE = Myzus persicae, grading” value was 9 (9 indicates 80-100% mortality). The “LAPHEG = Spodoptera exigua, grading” value in the data set with Spodoptera exigua is listed as 9 (9 indicates 80-100% mortality).
`Cc1nsc(NC(=O)Cc2ccc3oc(CC4CC4)nc3c2)c1Cl` [41(A3)]: the “HELIVI = Heliothis virescens, grading” value with Heliothis virescens is 5 (5 indicates 40-79% mortality). Further, the “MUSCDO AK = Musca domestica (kill)” value in the data set on Musca domestica is 9 (9 indicates 80-100% mortality). The “TETRUR = Tetranychus urticae, grading” value in the data set with Tetranychus urticae is on record as 5 (5 indicates 40-79% mortality). Moreover, the “MYZUPE = Myzus persicae, grading” value in the data set on Myzus persicae is given as 9 (9 indicates 80-100% mortality). In the data set on Spodoptera exigua, the “LAPHEG = Spodoptera exigua, grading” value is reported as 5 (5 indicates 40-79% mortality).
In the case of `CSCCc1nc2cc(CC(=O)Nc3snc(C)c3Cl)ccc2o1` [172(A3)], the “HELIVI = Heliothis virescens, grading” value in the data set with Heliothis virescens is given as 5 (5 indicates 40-79% mortality). In the data set on Musca domestica, the “MUSCDO AK = Musca domestica (kill)” value is listed as 9 (9 indicates 80-100% mortality). Further, the “TETRUR = Tetranychus urticae, grading” value in the data set on Tetranychus urticae is reported as 9 (9 indicates 80-100% mortality). For the same compound, the “MYZUPE = Myzus persicae, grading” value in the data set on Myzus persicae is 9 (9 indicates 80-100% mortality). Moreover, the “LAPHEG = Spodoptera exigua, grading” value in the data set with Spodoptera exigua is 5 (5 indicates 40-79% mortality).
Turning to `CCOc1nc2cc(CC(=O)Nc3snc(C)c3Cl)ccc2o1` [204(A3)], in the data set with Heliothis virescens, the “HELIVI = Heliothis virescens, grading” value is 5 (5 indicates 40-79% mortality). For the same compound, the “MUSCDO AK = Musca domestica (kill)” value in the data set with Musca domestica is 9 (9 indicates 80-100% mortality). Also, the “TETRUR = Tetranychus urticae, grading” value in the data set with Tetranychus urticae is 0 (0 indicates less than 40% mortality). The “MYZUPE = Myzus persicae, grading” value in the data set with Myzus persicae is on record as 9 (9 indicates 80-100% mortality). The “LAPHEG = Spodoptera exigua, grading” value in the data set on Spodoptera exigua is given as 9 (9 indicates 80-100% mortality).
Take `Cc1nsc(N(C)C(=O)Cc2ccc3oc(CC(C)(C)C)nc3c2)c1Cl` [15(B3)]: the “HELIVI = Heliothis virescens, grading” value with Heliothis virescens is 0 (0 indicates less than 40% mortality). In the data set with Musca domestica, the “MUSCDO AK = Musca domestica (kill)” value is listed as 0 (0 indicates less than 40% mortality). In the data set with Tetranychus urticae, the “TETRUR = Tetranychus urticae, grading” value was 9 (9 indicates 80-100% mortality). In addition, the “MYZUPE = Myzus persicae, grading” value with Myzus persicae was 5 (5 indicates 40-79% mortality). In addition, in the data set with Spodoptera exigua, the “LAPHEG = Spodoptera exigua, grading” value is on record as 0 (0 indicates less than 40% mortality).
For `Cc1nsc(NC(=O)Cc2ccc3oc(-c4ccc(C(C)(C)C)cc4)nc3c2)c1Cl` [252(A3)], the “HELIVI = Heliothis virescens, grading” value with Heliothis virescens is 0 (0 indicates less than 40% mortality). For the same compound, in the data set on Musca domestica, the “MUSCDO AK = Musca domestica (kill)” value is given as 0 (0 indicates less than 40% mortality). For the same compound, in the data set with Tetranychus urticae, the “TETRUR = Tetranychus urticae, grading” value was 0 (0 indicates less than 40% mortality). The “MYZUPE = Myzus persicae, grading” value with Myzus persicae is given as 0 (0 indicates less than 40% mortality). Further, the “LAPHEG = Spodoptera exigua, grading” value in the data set with Spodoptera exigua is recorded as 0 (0 indicates less than 40% mortality).
In the case of `COCCOCN(C(=O)Cc1ccc2oc(C)nc2c1)c1snc(C)c1Cl` [2(M3)], in the data set with Heliothis virescens, the “HELIVI = Heliothis virescens, grading” value is reported as 0 (0 indicates less than 40% mortality). Besides, in the data set on Musca domestica, the “MUSCDO AK = Musca domestica (kill)” value was 0 (0 indicates less than 40% mortality). Moreover, the “TETRUR = Tetranychus urticae, grading” value with Tetranychus urticae is 0 (0 indicates less than 40% mortality). The “MYZUPE = Myzus persicae, grading” value in the data set on Myzus persicae is reported as 5 (5 indicates 40-79% mortality). In the data set with Spodoptera exigua, the “LAPHEG = Spodoptera exigua, grading” value is reported as 0 (0 indicates less than 40% mortality).
